Data from paper PMC4336329 (PLoS ONE, 2015).
In all, about 310,000 compounds went through this assay and about 2,200 (0.71%) showed an effect of 50% or more. Effects have a minus sign here. The list shows a part of the results.

These compounds were tested against human ether-à-go-go-related gene (hERG) potassium channel (human, UniProt Q12809) (assay: primary screen, population patch clamp on CHO cells stably expressing hERG).
Sequence of human ether-à-go-go-related gene (hERG) potassium channel (Q12809 whole entry, looked up): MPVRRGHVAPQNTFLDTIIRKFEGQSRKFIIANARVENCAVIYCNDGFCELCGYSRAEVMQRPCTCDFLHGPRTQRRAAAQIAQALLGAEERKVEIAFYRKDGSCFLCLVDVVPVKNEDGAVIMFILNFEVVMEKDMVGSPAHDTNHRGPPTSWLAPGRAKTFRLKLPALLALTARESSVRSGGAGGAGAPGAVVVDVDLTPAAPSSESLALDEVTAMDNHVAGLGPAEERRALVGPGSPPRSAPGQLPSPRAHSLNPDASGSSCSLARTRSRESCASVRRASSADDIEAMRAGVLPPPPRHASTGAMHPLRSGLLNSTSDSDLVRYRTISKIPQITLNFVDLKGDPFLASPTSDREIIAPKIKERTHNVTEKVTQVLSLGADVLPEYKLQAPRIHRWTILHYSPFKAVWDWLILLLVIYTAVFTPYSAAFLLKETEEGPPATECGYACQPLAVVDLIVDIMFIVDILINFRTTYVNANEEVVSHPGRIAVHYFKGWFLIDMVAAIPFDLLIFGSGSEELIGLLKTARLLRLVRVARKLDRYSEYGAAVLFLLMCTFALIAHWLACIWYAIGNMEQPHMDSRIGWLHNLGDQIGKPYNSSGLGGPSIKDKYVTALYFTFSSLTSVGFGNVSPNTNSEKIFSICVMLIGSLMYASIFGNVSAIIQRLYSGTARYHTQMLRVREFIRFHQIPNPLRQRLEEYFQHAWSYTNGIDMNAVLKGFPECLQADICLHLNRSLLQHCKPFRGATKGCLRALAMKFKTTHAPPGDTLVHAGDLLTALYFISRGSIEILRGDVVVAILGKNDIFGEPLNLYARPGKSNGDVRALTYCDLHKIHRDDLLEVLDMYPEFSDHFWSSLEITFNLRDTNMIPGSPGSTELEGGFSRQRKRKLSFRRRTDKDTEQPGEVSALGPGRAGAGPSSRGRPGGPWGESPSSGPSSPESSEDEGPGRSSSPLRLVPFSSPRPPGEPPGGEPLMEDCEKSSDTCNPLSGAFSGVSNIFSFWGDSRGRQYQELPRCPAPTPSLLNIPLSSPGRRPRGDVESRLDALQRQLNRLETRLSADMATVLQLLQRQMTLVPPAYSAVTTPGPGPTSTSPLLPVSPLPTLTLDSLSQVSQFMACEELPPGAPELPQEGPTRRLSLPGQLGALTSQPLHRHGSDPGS

Row | SMILES | hERG current change (%, negative = inhibition) at 1uM [%]
1 | CN(C)C(=O)c1ccc(Cl)cc1[N+](=O)[O-] | 15.2
2 | CN(CC(=O)Nc1c(Cl)cccc1Cl)C(=O)C1CC(=O)N(Cc2ccccc2)C1 (stereo not drawn) | 16.2
3 | CCC(=O)Nc1ccc(NC(=O)CN2CCCC(C)C2)c(Cl)c1 (stereo not drawn) | -1.66
4 | CCOC(=O)c1ccc(NC(=O)C2CCC(CNc3c(N4CCOCC4)c(=O)c3=O)CC2)cc1 (stereo not drawn) | 11.6
5 | COc1ccc(-n2c(N)c(C(=O)NCc3ccco3)sc2=S)cc1 | 2.96
6 | O=c1c2c(nc3nc(Cc4ccccc4)[nH]n13)CCC2 | 7.88
7 | COC(=O)c1ccc(NS(=O)(=O)c2ccc(Cl)cc2)o1 | 7.1
8 | Cc1cccc(-n2ccnc2SCC(=O)Nc2nccs2)c1 | 2.78
9 | Cc1ccnc(NC(=O)CCC(=O)N(CC(=O)NCc2ccccc2)c2ccc3c(c2)OCO3)c1 | 2.08
10 | Oc1ccc(C2NCc3ccccc3-n3cccc32)cc1Cl (stereo not drawn) | 4.07
11 | O=C(NCc1cccc(C(F)(F)F)c1)c1cccc(S(=O)(=O)NCc2ccccc2)c1 | 9.37
12 | O=C(Cn1cccn1)N1CCCC(N2CCN(c3ccccc3F)CC2)C1 (stereo not drawn) | 10.2
13 | COc1ccc(C(=O)Nc2ccc3[nH]ncc3c2)cc1OC | 9.61
14 | CCCCC[C@H](O)/C=C/[C@@H]1[C@@H](C/C=C\CCCC(=O)OC)[C@@H](O)C[C@H]1O | 13.7
15 | CC(=O)c1ccc(NC(=O)CSc2nnc3ccc(-c4ccccn4)nn23)cc1 | 1.01
16 | CC1=C(C)CS(=O)N(S(=O)(=O)c2ccccc2)C1 (stereo not drawn) | -0.258
17 | CC(C)OC(=O)CN1CCN(S(=O)(=O)c2cc(Cl)ccc2Cl)CC1 | -1.48
18 | Cc1cc2c(Nc3ccccc3)ncnc2s1.Cl | -1.22
19 | Cc1ccc(C(=O)NCC(=O)Nc2ccc(C)c(S(=O)(=O)Nc3ccc(Cl)cc3)c2)s1 | 13.8
20 | Cc1cccc(N2C(=O)c3ccc(C(=O)Nc4ccccn4)cc3C2=O)c1 | 14.5
21 | CSc1cccc(NC(=O)c2nnn(Cc3ccccc3)c2N)c1 | 16
22 | O=C1C=C(c2cccc(O)c2)C[C@@H](c2ccc(F)cc2)C1 | 13.3
23 | O=C(O)/C=C\C(=O)Nc1ccc(OC(F)F)cc1 | 12.9
24 | CCOC(=O)N1CCN(S(=O)(=O)c2ccc(C(=O)NNc3nc4cc(C)cc(C)c4s3)cc2)CC1 | 17.2
